Out of some 45,000 compounds screened, about 65 (0.1%) were called active. The call rests on the fitted dose curve; in most records, active means well fitted activation curve with a large enough effect; inconclusive means small, poorly fitted or top-dose-only effect; inactive means no such curve, though single readings can be large or run the other way. Some of the results follow.
molecular target: Galactocerebrosidase (Homo sapiens) (UniProt P54803); assay: A Novel Cell-Based Assay to Identify Small Molecules for B -Galactocerebrosidase; conditions: 145M-Twi-hGALC-G270D cells (Twitcher mouse brain line with human GALC G270D), HMU-beta-Gal fluorescence, 48 h; series mostly up to 57.5 µM; activation: at the top concentration; further: 0% is about no effect; nearly all actives have a fitted effect of over 65% in size
UniProt P54803, sequence (P54803 whole entry, looked up): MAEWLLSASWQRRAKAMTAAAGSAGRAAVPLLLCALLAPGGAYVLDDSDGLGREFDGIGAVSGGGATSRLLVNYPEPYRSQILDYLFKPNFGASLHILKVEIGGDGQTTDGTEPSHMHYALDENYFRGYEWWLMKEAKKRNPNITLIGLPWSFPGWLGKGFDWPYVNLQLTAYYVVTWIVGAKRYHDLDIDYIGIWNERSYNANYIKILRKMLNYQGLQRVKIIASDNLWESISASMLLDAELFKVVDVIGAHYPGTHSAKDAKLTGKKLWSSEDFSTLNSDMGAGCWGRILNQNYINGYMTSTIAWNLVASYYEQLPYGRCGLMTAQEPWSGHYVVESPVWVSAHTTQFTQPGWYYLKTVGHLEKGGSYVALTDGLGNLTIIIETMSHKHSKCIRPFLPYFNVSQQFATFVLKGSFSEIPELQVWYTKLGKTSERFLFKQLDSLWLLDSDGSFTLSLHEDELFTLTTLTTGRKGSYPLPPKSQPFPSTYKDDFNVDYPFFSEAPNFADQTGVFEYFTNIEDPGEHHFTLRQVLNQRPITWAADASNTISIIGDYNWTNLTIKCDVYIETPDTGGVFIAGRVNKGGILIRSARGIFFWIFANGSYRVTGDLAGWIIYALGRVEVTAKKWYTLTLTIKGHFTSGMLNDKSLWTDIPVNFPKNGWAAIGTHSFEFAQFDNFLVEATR
Method in brief: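 Live 145M-Twi cells (Twitcher mouse brain-derived, GALC-null) stably expressing human GALC-G270D, with a wild-type GALC line, were compound-treated. Residual GALC activity was then read as fluorescence from 0.1 mM final HMU-β-gal at pH 5.2; higher signal means activation.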

activation, inactive:
Cc1ccc(C(=O)Nc2ccc(Br)cc2)cc1S(=O)(=O)NCc1ccccc1 1.89%
CCOc1ccccc1C(=O)N(Cc1ccco1)Cc1ccccc1F -11.7%
CCOc1ccc2nc(NC(=O)c3ccccc3)sc2c1 -14%
O=C(Cn1ncc2c3ccccc3n(Cc3ccccc3F)c2c1=O)NCCCc1ccccc1 -8.97%
CCOc1ccc(NC(=O)C(=O)NCCc2ccccc2)cc1 -13.9%
CCc1ccc(S(=O)(=O)Nc2cc3c(cc2N2CCOCC2)n(C)c(=O)c(=O)n3C)cc1 13.2%
COc1ccc(-c2nc3ccccc3s2)cc1NC(=O)COc1cccc(C)c1 -18.1%
O=c1c(N2CCCCC2)csc2ccc(F)cc12 -13.7%
CCc1nc2ccc(C(=O)NCc3cccc(Br)c3)cc2nc1CC -17.5%
O=C(c1cnc(N2CCCCC2)c2ccccc12)N1CCN(c2cccc(Cl)c2)CC1 5.19%
COCCCNC(=O)c1nn(-c2ccc(C)cc2)c(=O)n(C)c1=O -16.1%
Cc1cc(C)cc(NC(=O)CCCn2c(=O)c3cccn3c3ccccc32)c1 -10.3%
O=C(Cn1c(=O)n(CCCS(=O)(=O)C2CCCCC2)c(=O)c2ccccc21)Nc1ccc(F)c(Cl)c1 -12.4%
COc1ccc(C)cc1NC(=O)N1CCN(c2nnc(C)c3c(C)n(-c4ccccc4)nc23)CC1 -10.2%
Cc1ccc(CN2C(=O)c3ccccc3Sc3ccc(C(=O)NC4CCCC4)cc32)cc1 -10.7%
O=C(Cn1c(SCc2ccccc2F)nc2cccnc21)Nc1ccc(F)c(Cl)c1 -5.95%
CCNC(=O)c1c2c(nc3ccccc13)C(=O)N(C1CCCCC1)C2 -16.4%
COc1ccc(Cl)cc1C1CC(=O)Nc2cc3c(cc21)OCCO3 (centres undefined) -25.7%
CCCCNc1sc(S(=O)(=O)CCC)nc1S(=O)(=O)c1ccc(C)cc1 -12.3%
CCOc1ccccc1NC(=O)CCc1c(C)nc2c3cccnc3nn2c1C -18.2%
CCc1cccc(NC(=O)Cn2ncc3c([nH]c4ccc(C)cc43)c2=O)c1 -9.71%
O=C(Nc1ccc(F)cc1)Nc1ccc2snnc2c1 -24.9%
CCc1cccc(NC(=O)CN(c2ccc(C)cc2)S(=O)(=O)c2cccs2)c1 -11.2%
O=C(NC1CC(=O)N(c2ccccc2)C1)c1ccco1 (centres undefined) -16.5%
Cc1ccc(C(=O)N2CCc3cc(CNC(=O)CCc4ccccc4)ccc32)cc1 -22.4%
COc1cccc(C(=O)NCCc2csc(-c3cccc(F)c3)n2)c1OC -11.1%
CC(CNC(=O)C1CCN(S(=O)(=O)c2ccc3c(ccn3C)c2)CC1)c1ccccc1 (centres undefined) -2.7%
CC(C)OC(=O)c1c(NC(=O)COc2cccc(Br)c2)sc2c1CCCC2 -15.9%
O=C(CSc1nc2c([nH]c3ccccc32)c(=O)n1-c1ccccc1)N1CCOCC1 -6.97%
